Measured values from PMC12136788.
This is one part of the list.

B1: ENSG00000066084:stop:overlap|stop_codon|ENSG00000066084|stop_codon|NA|stop_codon (ssRNA)
RNA: GGGAGUUCUACAGUCCGACGAUCACUGGCAGCCACACAUCUCACCUGCUGGGACAGAACCGGCAUACAUUGAGGGGAAACAAUAGUAAAUGUCUUAGACUUUAAGAAGGAUGCUGGGCUGUGGCACGGCAUGUUUGCGAAUGUCAACAGAGGAUUGAGCAUCA
B2: chr8:27733518:27733645:-|3pUTR|ENSG00000147419|unk|total|mutant (ssRNA)
RNA: GGGAGUUCUACAGUCCGACGAUCGACCUUUUGAUUUUGAAGCAGACUAAAAUCUGACCAGACCACAAUGAAAAGUAUAAAAUCCGAAACUUAAAUUCCAAGCUAAAUUUCAGCUUUGACCCACCUAACUCCAGUGAACCGGUGCAACAGAGGAUUGAGCAUCA
B3: chr17:66805439:66805473:+|3pUTR|ENSG00000154229|msi1_unk|FALSE|overlapping (ssRNA)
RNA: GGGAGUUCUACAGUCCGACGAUCCACAAUUGUGCUCUAUUUGUGCAGGUUCUUGUUUCUAAUCCUCUUUUCUAAUUAAGUUUUAGCUGAAUCCCUUGCUUCUGUGCUUUCCCUCCCUGCACAUGGGCACUGUAUCAGAUAGAUCAACAGAGGAUUGAGCAUCA
B4: chr7:97024268:97024623:-|CDS|ENSG00000105880|control|control|control (ssRNA)
RNA: GGGAGUUCUACAGUCCGACGAUCGGCGUGAACGGCUCCGCCGGGAGCUACCCAGCCAAAGCUUAUGCCGACUAUAGCUACGCUAGCUCCUACCACCAGUACGGCGGCGCCUACAACCGCGUCCCAAGCGCCACCAACCAGCCACAACAGAGGAUUGAGCAUCA
B5: chr1:96820056:96820157:+|3pUTR|ENSG00000117569|unk|total|mutant (ssRNA)
RNA: GGGAGUUCUACAGUCCGACGAUCCCGUGUAAUAUAUAUAUAACCGCUCUAAUUAUAAAUACACUUUUACUCUGGAAAAAGCACCGACAUUGACAUAAGAGACAUUUAAAAACCAUUAUUUUCUCAUCUGUAAAAUGGAGAGAACAACAGAGGAUUGAGCAUCA
B6: chr13:30280108:30280219:-|CDS|ENSG00000102781|unk|FALSE|bound_elsewhere (ssRNA)
RNA: GGGAGUUCUACAGUCCGACGAUCUAAGGUUCGGCAGGAAUUAUUGGAGGAAUAUGAACAAGUUAAAAGUAUUGUCAGCACUUUAGAAAGUUUUAAAAUUGACAAGCCUCCAGAUUUCCCUGUGUCCUGUCAAGAUGAACCAUUCAACAGAGGAUUGAGCAUCA
B7: chr1:16124655:16124788:-|3pUTR|ENSG00000142627|msi1|total|mutant (ssRNA)
RNA: GGGAGUUCUACAGUCCGACGAUCAGACUGUGAACUUGACUGGGUGAGACCCAAAGCGGUCCCUGUCCCUCCCGUGCCUUCUUCCGACCCUCGGGCCCCAUCCUCAUCCCUGACUGGCCAAACCCUUGCUUUCCUGGGCCUUUGCAACAGAGGAUUGAGCAUCA
B8: chr6:43287355:43287456:+|3pUTR|ENSG00000146216|unk|FALSE|unique (ssRNA)
RNA: GGGAGUUCUACAGUCCGACGAUCUAUGACUCCUGGUGCCCAGGCCCUGGGCCUGCUCCUUGCCACCAACCGAACCGUGAAUGUAGGGCCCCCAGCCUCACCUCUGCCCCAGGACCAACAACACCCUGGUUUGGAGCUGGGAGGCAACAGAGGAUUGAGCAUCA
B9: ENSG00000070961:be:win_201|CDS|ENSG00000070961|bound_else_gene|NA|bound_elsewhere_windowed (ssRNA)
RNA: GGGAGUUCUACAGUCCGACGAUCCAAUGAAGGUUUAAGUGGAAACCCUGCAGAUUUAGAAAGAAGAGAAGCAGUGUUUGGAAAGAAUUUUAUACCUCCUAAAAAGCCAAAAACCUUUCUUCAAUUAGUAUGGGAAGCAUUACACAACAGAGGAUUGAGCAUCA
B10: ENSG00000164951:stop:overlap|stop_codon|ENSG00000164951|stop_codon|NA|stop_codon (ssRNA)
RNA: GGGAGUUCUACAGUCCGACGAUCUUACAAUCAUUGUAGUUCAGUUCAAUUCUCAUGUUGUAGGGGCGUAUCAAAACCAAGAAUAGUGAGUGGCUCUUUCACUGGCAAUUCUCAAAUGAUAUACAUUUAAAGGGCAGAUUUUUUCAACAGAGGAUUGAGCAUCA
B11: chr21:25881503:25881610:-|3pUTR|ENSG00000142192|msi1_unk|FALSE|overlapping (ssRNA)
RNA: GGGAGUUCUACAGUCCGACGAUCACAAACCCGUUUUAUGAUUUACUCAUUAUCGCCUUUUGACAGCUGUGCUGUAACACAAGUAGAUGCCUGAACUUGAAUUAAUCCACACAUCAGUAAUGUAUUCUAUCUCUCUUUACAUUUCAACAGAGGAUUGAGCAUCA
B12: ENSG00000107863:be:win_4051|CDS|ENSG00000107863|bound_else_gene|NA|bound_elsewhere_windowed (ssRNA)
RNA: GGGAGUUCUACAGUCCGACGAUCGUGCAGGAGGAAAGCACAGUAGACUCCCAGCCAGUGCCAAACAUAGAUCAUUUACUCACCAACAUUGGAAGGACAGGAGUCUCCCCAGGAGAUGUAUCAGAUUCAGCUACUAGUGACUCACAACAGAGGAUUGAGCAUCA
B13: ENSG00000070961:be:win_1351|CDS|ENSG00000070961|bound_else_gene|NA|bound_elsewhere_windowed (ssRNA)
RNA: GGGAGUUCUACAGUCCGACGAUCAUGAAAGAUAAUAACUUAGUAAGGCAUCUGGAUGCUUGUGAAACCAUGGGAAAUGCUACAGCUAUUUGUUCAGAUAAAACAGGAACUUUGACAAUGAACAGAAUGACAGUCGUUCAAGCUCAACAGAGGAUUGAGCAUCA
B14: chr9:128729785:128731336:-|three_prime_utr|ENSG00000160445|control|control|control (ssRNA)
RNA: GGGAGUUCUACAGUCCGACGAUCCUCCCACGGAGUGAAGAGACAUGGGGGACUUUUGCACAACCGACGCUUUUCCUUAAUGUUAGUGAGAUAUAUAUAUAUUAUAUAUAUAUAUUUUUUUUUUGGUUAGGAAGUGUGAAGUUUCAACAGAGGAUUGAGCAUCA
B15: chr1:226361101:226361261:-|3pUTR|ENSG00000143799|msi1|total|mutant (ssRNA)
RNA: GGGAGUUCUACAGUCCGACGAUCUUUCUUGCCAGGCCGAUAAAACUGACACCGAGAAAAGGCUGGAGAGAGAUUCUGUUGCACCGACCCGUCCUAUGGAAAAAACCAAGCUUCGUCCGAAUGUCUGCCUUACUGGUUUCCCCACAACAGAGGAUUGAGCAUCA
B16: ENSG00000123983:stop:overlap|stop_codon|ENSG00000123983|stop_codon|NA|stop_codon (ssRNA)
RNA: GGGAGUUCUACAGUCCGACGAUCGUGAUGCCAGACGUUUUUUUGGGUGUGGGACUACAAUACUGGCAGAGUGGGAGCACCAUUAGUUUGCUGUGAAAUCAAAUUAAAAAACUGGGAGGAAGGUGGAUACUUUAAUACUGAUAACAACAGAGGAUUGAGCAUCA
B17: chr11:62752106:62752207:-|CDS|ENSG00000185670|msi1|FALSE|unique (ssRNA)
RNA: GGGAGUUCUACAGUCCGACGAUCGGCUCACAAUGAGGACCUGGCCAAACGCAGCAAACCAGAUCCAGAAGUGGGACCCCUUCUAGGGGUGCAGCCUCUCCCUGGCUCCCCAACAGCAGACAGACAGAGCAGCAGUGGUGGAGGCAACAGAGGAUUGAGCAUCA
B18: ENSG00000198589:be:win_3151|CDS|ENSG00000198589|bound_else_gene|NA|bound_elsewhere_windowed (ssRNA)
RNA: GGGAGUUCUACAGUCCGACGAUCUCUUCUGACAUAAUAGAAGCUGUGGCUAUUUCCUCUAAUUCUUUUAUAACAACUGGCAAAGAUUCAAUGACUGUCAGUGAAGUAACUGCUUCUAUAAGUUCUCCUUCAGAAGAGGAUGCCCAACAGAGGAUUGAGCAUCA
B19: chr11:61799969:61800070:-|3pUTR|ENSG00000149485|msi1|total|mutant (ssRNA)
RNA: GGGAGUUCUACAGUCCGACGAUCUUCUUUGCCACCUUUUGGGUGUGGUGUCACCAGCCUGUUCCGCCAAGCCGCUUUGGGCACCGGCUGCCCAAUCUGAGCAAACACCAGUGAGGCUCUAUUGAGCCAAGACCAAGUCCUCAACAACAGAGGAUUGAGCAUCA
B20: chr6:57184343:57184440:+|3pUTR|ENSG00000112208|msi1_unk|total|mutant (ssRNA)
RNA: GGGAGUUCUACAGUCCGACGAUCUCUUCAGUUUUGUGAAUAACAAAACCCGCAAUAUUUUAAUUAUCUAUCCCGAGAUUUUUCCGAUUGAAUUCUUGUCUUGUACCCGGAUCCCGCAUAUUUCACUAUUCUGUGGAUGAAUACCAACAGAGGAUUGAGCAUCA
B21: chr12:29502561:29502662:-|3pUTR|ENSG00000133687|msi1|FALSE|unique (ssRNA)
RNA: GGGAGUUCUACAGUCCGACGAUCUCUUAACAAUGAUGUAUGGCACAAUUGGUUGGUUGAGGCUAUCAUUCCAUGAUUACAAAUAGGUGGUUAUGUGGGGUGGUUUUGCACUUGUGGCAAUUGGACUGCAAUUUGGCCUUAAAACAACAGAGGAUUGAGCAUCA
B22: chr19:42216679:42217007:-|CDS|ENSG00000160570|control|control|control (ssRNA)
RNA: GGGAGUUCUACAGUCCGACGAUCCUUUCUGCUGGAUGAGGCUCCUGGCGCCGCCGGAGGCUUAGCCCGGGCCCGCAGCGGCCUAGAGCUCCUGCUGGAGCUGGAGCGCCGCGGGCAGUGCGACGAGAGCAACCUGCGGCUGCUCAACAGAGGAUUGAGCAUCA

Each binder was assayed against MSI1 full-length (mouse, UniProt Q61474 1-362) (assay: nsRBNS (natural sequence RNA bind-n-seq); RBNS binding buffer (assumed for nsRBNS): 25 mM Tris pH 7.5, 150 mM KCl, 3 mM MgCl2, 0.01% Triton X-100, 500 ug/ml BSA, 20 U/ml SUPERase-In, 4 C; UNK is unkempt and MSI1 is Musashi-1; names of the RNAs are library labels; protein concentration not given here; high values mean tight binding).
Chain of UniProt Q61474 (Q61474 whole entry): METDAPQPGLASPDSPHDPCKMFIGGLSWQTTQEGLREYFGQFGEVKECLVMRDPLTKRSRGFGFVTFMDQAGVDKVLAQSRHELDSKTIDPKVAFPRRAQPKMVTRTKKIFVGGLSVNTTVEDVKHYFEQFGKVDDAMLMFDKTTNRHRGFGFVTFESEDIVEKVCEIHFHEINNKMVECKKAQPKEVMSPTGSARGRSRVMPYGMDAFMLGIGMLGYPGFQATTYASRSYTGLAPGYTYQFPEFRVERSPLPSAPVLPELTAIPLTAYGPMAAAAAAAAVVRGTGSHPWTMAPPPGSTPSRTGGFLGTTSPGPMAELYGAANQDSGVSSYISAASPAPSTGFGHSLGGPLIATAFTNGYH

In order of falling binding signal:
1. B9  3.64 enrichment R
2. B5  3.26 enrichment R
3. B3  2.49 enrichment R
4. B14  2.35 enrichment R
5. B12  1.93 enrichment R
6. B6  1.69 enrichment R
7. B16  1.68 enrichment R
8. B1  1.36 enrichment R
9. B11  0.949 enrichment R
10. B7  0.681 enrichment R
11. B10  0.635 enrichment R
12. B13  0.551 enrichment R
13. B20  0.54 enrichment R
14. B8  0.537 enrichment R
15. B17  0.525 enrichment R
16. B4  0.46 enrichment R
17. B18  0.411 enrichment R
18. B21  0.41 enrichment R
19. B19  0.369 enrichment R
20. B15  0.355 enrichment R
21. B2  0.297 enrichment R
22. B22  0.233 enrichment R
